According to the supplement of paper PMC9446081:
Among all 39,000 compounds or so, about 220 (0.56%) showed activity. The list shows a part of the results.

tested on: Escherichia coli K-12 BW25113; assay: relative growth (OD600 normalised to plate interquartile mean) (fraction); higher = less growth inhibition, active = 0.2 or less; conditions: 50 µM; LB; incubation time: overnight (16-24 h)
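Further: static incubation at 37 °C against the wild-type strain, values averaged over two biological replicates.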

Row | SMILES | relative growth
1 | C[C@@H]1CN([C@H](C)CO)C(=O)c2cc(NC(=O)Cc3cn(C)c4ccccc34)ccc2O[C@@H]1CN(C)S(=O)(=O)c1cn(C)cn1 | inactive: 1
2 | C[C@@H]1CN([C@@H](C)CO)C(=O)Cc2cc(NS(=O)(=O)c3ccc(F)cc3)ccc2O[C@H]1CN(C)S(C)(=O)=O | inactive: 1.02
3 | CCC[C@@H](O)C#Cc1cnc2c(c1)C(=O)N([C@H](C)CO)C[C@H](C)[C@H](CN(C)C(=O)Nc1c(C)noc1C)O2 | inactive: 1.04
4 | CO[C@@H]1CN(C)C(=O)c2cc(NC(=O)Nc3ccccc3F)ccc2OC[C@H](C)N(CCC(F)(F)F)C[C@H]1C | inactive: 0.999
5 | O=C(Nc1ccccc1)c1ccco1 | inactive: 0.917
6 | Cc1noc(C)c1NC(=O)Nc1ccc2c(c1)CC(=O)N([C@H](C)CO)C[C@@H](C)[C@@H](CN(C)S(=O)(=O)c1cccs1)O2 | inactive: 0.984
7 | CO[C@@H]1CN(C)C(=O)c2ccc(NC(=O)Nc3ccc(F)cc3)cc2OC[C@@H](C)N(C(=O)c2ccc(F)cc2)C[C@H]1C | inactive: 1
8 | Cc1cccc(N(CC(=O)O)CC(=O)O)c1 | inactive: 1.04
9 | COCC#Cc1cnc2c(c1)C(=O)N([C@H](C)CO)C[C@@H](C)[C@@H](CN(C)S(=O)(=O)c1cn(C)cn1)O2 | inactive: 0.997
10 | C[C@@H]1CN([C@H](C)CO)C(=O)Cc2cc(NS(=O)(=O)c3cn(C)cn3)ccc2O[C@@H]1CN(C)S(=O)(=O)c1cccs1 | inactive: 0.975
11 | CC(C)N1CC[C@H](CN(C)Cc2ccc(Oc3ccccc3)cc2)Oc2c(NC(=O)c3ccncc3)cccc2C1=O | inactive: 1.01
12 | C[C@H](CO)N1C[C@H](C)[C@H](CN(C)Cc2ccc(C(=O)O)cc2)Oc2ccc(NC(=O)c3ccncc3)cc2C1=O | inactive: 0.994
13 | C[C@@H]1CN([C@H](C)CO)C(=O)c2cc(NC(=O)CCC(F)(F)F)ccc2O[C@@H](C)CCCCO[C@H]1CN(C)C(=O)c1ccccc1 | inactive: 0.99
14 | C[C@H](CO)N1C[C@H](C)[C@@H](CN(C)S(C)(=O)=O)Oc2ccc(NC(=O)CCC(F)(F)F)cc2C1=O | inactive: 1.02
15 | COCCCNC(=O)[C@@]1(Sc2ccc(C)cc2)CC(=O)N(Cc2ccccc2Cl)[C@@H]1c1ccc(CO)cc1I | inactive: 0.925
16 | C[C@H]1CN([C@@H](C)CO)C(=O)c2cc(NC(=O)Cn3cnnn3)ccc2O[C@@H]1CN(C)S(C)(=O)=O | inactive: 0.996
17 | C[C@@H]1CCCCO[C@H](CN(C)CC2CCCCC2)[C@H](C)CN([C@@H](C)CO)C(=O)c2cc(NC(=O)c3ccccc3)ccc2O1 | inactive: 0.971
18 | C[C@H](CO)N1C[C@H](C)[C@@H](CN(C)C(=O)Nc2ccc(C(F)(F)F)cc2)Oc2c(NS(C)(=O)=O)cccc2C1=O | inactive: 0.974
19 | Cc1ccc(S(=O)(=O)Nc2ccc3c(c2)C(=O)N([C@@H](C)CO)C[C@H](C)[C@H](CN(C)S(=O)(=O)c2ccc(C)cc2)OCCCC[C@H](C)O3)cc1 | inactive: 1.05
20 | C[C@@H]1CCCCO[C@H](CN(C)Cc2ccc(C(F)(F)F)cc2)[C@H](C)CN([C@H](C)CO)C(=O)c2cc(N(C)C)ccc2O1 | inactive: 1

Row | SMILES | relative growth
21 | CCN1C(=O)CO[C@H]2CN(C(=O)C3CCOCC3)C[C@@H]21 | inactive: 0.979
22 | C[C@@H]1CN([C@@H](C)CO)C(=O)Cc2cc(NC(=O)c3ccncc3)ccc2O[C@H]1CN(C)S(=O)(=O)c1ccc(F)cc1 | inactive: 0.983
23 | C[C@@H]1CCCCO[C@H](CN(C)C(=O)NC2CCCCC2)[C@H](C)CN([C@@H](C)CO)C(=O)c2cc(NC(=O)Nc3ccc(C(F)(F)F)cc3)ccc2O1 | inactive: 1.02
24 | C[C@H](CO)N1C[C@H](C)[C@@H](CN(C)S(=O)(=O)c2cccc(F)c2)Oc2ncc(C#CC3CCCC3)cc2C1=O | inactive: 1.02
25 | C[C@@H]1CN([C@@H](C)CO)C(=O)c2cc(NC(=O)CCN3CCOCC3)ccc2O[C@H]1CN(C)C(=O)Nc1ccc(F)cc1 | inactive: 1.02
26 | COc1ccc(S(=O)(=O)Nc2ccc3c(c2)CC(=O)N([C@H](C)CO)C[C@@H](C)[C@@H](CN(C)S(=O)(=O)c2ccc(C)cc2)O3)cc1 | inactive: 1.02
27 | COc1ccc(S(=O)(=O)N(C)C[C@H]2Oc3ccc(NC(=O)NC(C)C)cc3C(=O)N([C@@H](C)CO)C[C@H]2C)cc1 | inactive: 1.02
28 | C[C@@H]1CN([C@@H](C)CO)C(=O)c2c(c3ccccc3n2C)-c2ccccc2CO[C@@H]1CN(C)Cc1cccc2c1OCCCO2 | inactive: 0.998
29 | O=C(/C=C/c1ccccc1)OC[C@H]1O[C@@H](O[C@@H]2CC(C(=O)O)=C[C@@H](O)[C@H]2O)[C@H](O)[C@@H](O)[C@@H]1O | inactive: 1.02
30 | C[C@@H]1CN([C@H](C)CO)C(=O)c2cc(NC(=O)c3ccncc3)ccc2O[C@H]1CN(C)Cc1ccc(Oc2ccccc2)cc1 | inactive: 1.03
31 | Cc1cc(=O)n(-c2ccccc2)n1C | inactive: 1.02
32 | C[C@@H]1CN([C@H](C)CO)C(=O)c2cc(NS(=O)(=O)c3ccc(F)cc3)ccc2O[C@@H](C)CCCCO[C@@H]1CN(C)S(=O)(=O)c1cn(C)cn1 | inactive: 1.01
33 | C[C@@H]1CN([C@H](C)CO)C(=O)c2cc(NS(=O)(=O)c3ccccc3)ccc2O[C@H]1CN(C)CC1CC1 | inactive: 0.98
34 | CCOc1oc(C(=O)NC2CCCCC2)c(-c2ccc(Cl)cc2)c1S(=O)(=O)c1ccc(Cl)cc1 | inactive: 1.03
35 | C[C@@H]1CN([C@H](C)CO)C(=O)c2cc(NS(=O)(=O)c3ccc(F)cc3)ccc2O[C@@H](C)CCCCO[C@H]1CN(C)Cc1ccc2c(c1)OCO2 | inactive: 1.01
36 | O=S(=O)(NCC[C@H]1CC[C@@H](NS(=O)(=O)c2ccccc2Cl)[C@H](CO)O1)c1ccc(F)cc1 | inactive: 0.964
37 | CC(=O)N1[C@@H](CO)[C@@H](c2ccccc2)[C@@H]1CNC(=O)CN1CCOCC1 | inactive: 0.952
38 | CN(C)C(=N)NCCC[C@H](N)C(=O)O | inactive: 0.995
39 | O=S1(=O)CC[C@H](S(=O)(=O)N2CCOCC2)C1 | inactive: 1.01
40 | COc1ccccc1CNC(=O)C[C@@H]1C[C@H]2c3cc(NC(=O)c4ccc5c(c4)OCO5)ccc3O[C@H]2[C@@H](CO)O1 | inactive: 1.02

Row | SMILES | relative growth
41 | COc1ccc(C#Cc2ccc3c(c2)[C@]2(C(=O)N3)[C@H](C(=O)N3CCN(c4ncccn4)CC3)[C@H]3C(=O)O[C@H](c4ccccc4)[C@H](c4ccccc4)N3[C@@H]2c2ccc(O)cc2)cc1 | inactive: 1.03
42 | COc1ccc(CN(C)C[C@@H]2Oc3ccc(NC(=O)Nc4cccc5ccccc45)cc3C(=O)N([C@@H](C)CO)C[C@H]2C)cc1 | inactive: 1.01
43 | C[C@@H]1CN([C@@H](C)CO)C(=O)c2cccc(NC(=O)Nc3cccc4ccccc34)c2O[C@H]1CN(C)S(=O)(=O)c1ccccc1 | inactive: 1.01
44 | O=C(C[C@@H]1C[C@@H]2c3cc(NS(=O)(=O)c4ccc(F)cc4)ccc3O[C@@H]2[C@H](CO)O1)NCc1ccncc1 | inactive: 1.01
45 | C[C@@H]1CCCCO[C@@H](CN(C)Cc2ccccc2)[C@H](C)CN([C@@H](C)CO)C(=O)c2cc(NC(=O)Nc3ccc(F)cc3)ccc2O1 | inactive: 0.974
46 | COc1ccc(CNC(=O)C[C@H]2C[C@H]3c4cc(NC(=O)NC5CCCC5)ccc4O[C@H]3[C@@H](CO)O2)cc1 | inactive: 0.999
47 | C[C@@H]1CN([C@H](C)CO)C(=O)c2cc(NS(=O)(=O)c3ccc(F)cc3)ccc2O[C@H]1CN(C)S(=O)(=O)c1cn(C)cn1 | inactive: 1.04
48 | COCC#Cc1ccc2c(c1)O[C@H](CN(C)C(=O)Nc1ccccc1F)[C@H](C)CN([C@H](C)CO)S2(=O)=O | inactive: 1.01
49 | C[C@H](CO)N1C[C@H](C)[C@@H](CN(C)Cc2ccc3c(c2)OCO3)Oc2ccc(NS(=O)(=O)c3ccccc3)cc2CC1=O | inactive: 0.992
50 | C[C@H]1CN([C@@H](C)CO)C(=O)Cc2cc(NC(=O)CCN3CCOCC3)ccc2O[C@@H]1CN(C)Cc1ccc(C(=O)O)cc1 | inactive: 1.05
51 | CC(C)OC(=O)OCOP(=O)(CO[C@H](C)Cn1cnc2c(N)ncnc21)OCOC(=O)OC(C)C | inactive: 0.993
52 | CC(C)CC#Cc1ccc2c(c1)O[C@@H](CN(C)C(=O)Cc1ccncc1)[C@@H](C)CN([C@@H](C)CO)S2(=O)=O | inactive: 0.919
53 | Cc1noc(C)c1NC(=O)Nc1ccc2c(c1)CC(=O)N([C@@H](C)CO)C[C@@H](C)[C@@H](CN(C)Cc1ccc(-c3ccccc3)cc1)O2 | inactive: 0.995
54 | C[C@@H]1CCCCO[C@H](CN(C)Cc2ccc(Cl)c(Cl)c2)[C@@H](C)CN([C@@H](C)CO)C(=O)c2cc(NC(=O)C3CCCCC3)ccc2O1 | inactive: 1.02
55 | C[C@@H]1CN([C@H](C)CO)C(=O)Cc2cc(NS(=O)(=O)c3cccs3)ccc2O[C@H]1CN(C)S(=O)(=O)c1cn(C)cn1 | inactive: 0.994
56 | C[C@@H]1CN([C@@H](C)CO)C(=O)c2cc(NS(=O)(=O)c3cn(C)cn3)ccc2O[C@H]1CN(C)C(=O)Nc1ccc(F)cc1 | inactive: 1.01
57 | CC(C)NC(=O)N(C)C[C@@H]1OCc2cnnn2CCCC(=O)N([C@@H](C)CO)C[C@@H]1C | inactive: 1.02
58 | C[C@@H]1CCCCO[C@@H](CN(C)C(=O)Nc2ccc3c(c2)OCO3)[C@@H](C)CN([C@H](C)CO)C(=O)c2cc(NC(=O)NC3CCCCC3)ccc2O1 | inactive: 1.01
59 | O=C(C[C@H]1C=C[C@@H](NC(=O)C2CCC2)[C@@H](CO)O1)NCCCN1CCOCC1 | inactive: 0.964
